Assay results from the BET-seq Pho4 binding data (Le et al. 2018).
The other results are listed elsewhere or left out. The energies were worked out here from pooled read counts, against the library average; single values are noisy.

Biological target: T1, Pho4 (S. cerevisiae) (UniProt P07270)
T1 sequence: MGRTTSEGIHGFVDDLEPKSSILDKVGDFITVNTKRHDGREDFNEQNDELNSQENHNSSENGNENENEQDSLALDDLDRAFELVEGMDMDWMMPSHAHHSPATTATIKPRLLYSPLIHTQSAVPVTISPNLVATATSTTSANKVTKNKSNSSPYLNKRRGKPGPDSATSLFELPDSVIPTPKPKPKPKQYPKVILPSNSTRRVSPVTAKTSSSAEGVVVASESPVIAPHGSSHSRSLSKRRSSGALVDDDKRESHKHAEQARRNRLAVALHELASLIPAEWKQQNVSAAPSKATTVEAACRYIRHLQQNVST
Test: relative binding free energy (BET-seq); higher = weaker binding
Conditions: reference: library average

Sequence | relative binding free energy
TGGCTCACGTGGCTTT | 0.19 kcal/mol
AGGGTCACGTGATTGC | 0.26 kcal/mol
TGTGGCACGTGTTTAA | -0.01 kcal/mol
ACGATCACGTGTTGGT | 0.16 kcal/mol
ATTATCACGTGGCGTG | 0.01 kcal/mol
TGAGACACGTGTTATG | 0.04 kcal/mol
GGTGCCACGTGGTGAG | -0.09 kcal/mol
GGTCACACGTGAAGGG | 0.33 kcal/mol
GGAAGCACGTGGTTGC | 0.08 kcal/mol
TTGGTCACGTGAAGTC | 0.28 kcal/mol
TGCGGCACGTGCGTTG | -0.13 kcal/mol
GCGGGCACGTGAGGCT | 0.07 kcal/mol
GCGGTCACGTGGCTTG | 0.03 kcal/mol
GAGGTCACGTGATCGG | 0.26 kcal/mol
GTATACACGTGTTGGG | 0.04 kcal/mol
AAAGGCACGTGATACG | 0.04 kcal/mol
ATCGGCACGTGTGTTT | 0 kcal/mol
GGGGACACGTGCCGGC | 0.06 kcal/mol
ACAAGCACGTGATGGT | 0.08 kcal/mol
GGTCACACGTGTGTCG | 0.18 kcal/mol
ATAGTCACGTGTAATT | 0.07 kcal/mol
TCAATCACGTGGGGTT | -0.01 kcal/mol
GGGCGCACGTGGCAGT | -0.12 kcal/mol
GTGAACACGTGTGTGG | -0.08 kcal/mol
GGGGACACGTGTGGGG | 0.14 kcal/mol

Sequence | relative binding free energy
AGTTTCACGTGACGCG | 0.38 kcal/mol
GAGTTCACGTGAGGGG | 0.43 kcal/mol
TGGGGCACGTGTCGTC | -0.18 kcal/mol
TTTGACACGTGGTTGT | 0.12 kcal/mol
TTGGCCACGTGAAGTG | 0.23 kcal/mol
GTTAGCACGTGTTTGG | -0.06 kcal/mol
TTTGGCACGTGTTTAG | 0.02 kcal/mol
CTTAACACGTGGGGAG | -0.16 kcal/mol
TATTACACGTGTAATG | 0.1 kcal/mol
ATTATCACGTGGAAAT | 0.28 kcal/mol
CGTTTCACGTGTGTGG | 0.27 kcal/mol
TTTGTCACGTGAGTAA | 0.24 kcal/mol
TTAAGCACGTGATCAG | 0.01 kcal/mol
TGGAACACGTGAGGGG | 0.31 kcal/mol
TGACACACGTGGTAGG | -0.04 kcal/mol
TGGGGCACGTGCTCGT | -0.2 kcal/mol
TAGTGCACGTGGAATT | 0.15 kcal/mol
GGCTACACGTGGGGGC | 0.03 kcal/mol
TTGGGCACGTGCTCGG | -0.24 kcal/mol
TGTAACACGTGTGCGA | 0.07 kcal/mol
GGGCCCACGTGGGTAT | -0.03 kcal/mol
AGATACACGTGAAGGG | 0.22 kcal/mol
TAGGTCACGTGTAATA | 0.22 kcal/mol
ATTAACACGTGAGAGT | 0.28 kcal/mol
TGCGTCACGTGGAGTT | 0.24 kcal/mol

Sequence | relative binding free energy
GTGGGCACGTGGTCTA | -0.18 kcal/mol
ATATGCACGTGCGGGA | -0.07 kcal/mol
TGATACACGTGTATGA | 0.02 kcal/mol
CTGTTCACGTGACTTG | 0.38 kcal/mol
TGCGTCACGTGAGGAT | 0.16 kcal/mol
GGTCACACGTGTGGTA | 0.07 kcal/mol
TGGGTCACGTGGACGA | 0.17 kcal/mol
CGTTGCACGTGCGTGA | -0.14 kcal/mol
GGGTCCACGTGAAGTT | 0.39 kcal/mol
GTAGGCACGTGCTTTG | -0.1 kcal/mol
ACGTTCACGTGGATGT | 0.22 kcal/mol
AGTAGCACGTGATTGG | 0.18 kcal/mol
GGCATCACGTGAAAGG | 0.53 kcal/mol
TAAGTCACGTGTTGTA | 0.14 kcal/mol
GATGGCACGTGTTATT | 0.13 kcal/mol
GTGTACACGTGTATAG | -0.11 kcal/mol
CGGGGCACGTGCGAGG | -0.26 kcal/mol
CGCGCCACGTGTGGGG | -0.11 kcal/mol
AGTTTCACGTGACTTT | 0.15 kcal/mol
TGATTCACGTGCGTGT | 0.21 kcal/mol
ACATACACGTGGGGTG | -0.21 kcal/mol
TATAGCACGTGGTTGT | -0.07 kcal/mol
GTTACCACGTGGGTGA | -0.09 kcal/mol
TAGGGCACGTGTTTAA | -0.25 kcal/mol
TTCTGCACGTGAGGGT | 0.11 kcal/mol

Sequence | relative binding free energy
TAAATCACGTGAAGGC | 0.55 kcal/mol
TTGATCACGTGGTAGG | 0.19 kcal/mol
TGGGACACGTGACAGG | 0.09 kcal/mol
TCATGCACGTGCGGTA | 0.03 kcal/mol
CGGGACACGTGCTAGG | -0.03 kcal/mol
GGGGCCACGTGTCTTT | 0.09 kcal/mol
TGGAACACGTGTCTGG | -0.01 kcal/mol
TGGTACACGTGGGAAG | 0.07 kcal/mol
ATGAACACGTGACGGG | 0.32 kcal/mol
CGTGACACGTGCGGTT | -0.08 kcal/mol
ACTGTCACGTGGAATT | 0.29 kcal/mol
GAGATCACGTGTGGGT | 0.18 kcal/mol
GTAGGCACGTGCGGTT | -0.01 kcal/mol
GTGTTCACGTGGCTTA | 0.25 kcal/mol
AATGTCACGTGATAGT | 0.23 kcal/mol
ATCGGCACGTGTGATG | -0.05 kcal/mol
CTGGTCACGTGGTATC | 0.13 kcal/mol
TTGCACACGTGAGGTG | 0.22 kcal/mol
CATTTCACGTGCAGGG | 0.27 kcal/mol
AATGTCACGTGCGTTG | 0.05 kcal/mol
GTGGGCACGTGCCGGT | -0.1 kcal/mol
GTCTTCACGTGGTGCG | 0.15 kcal/mol
ATTAGCACGTGTTCTT | 0.01 kcal/mol
ATAGTCACGTGAGGTG | 0.1 kcal/mol
TTGCACACGTGTTTAG | 0 kcal/mol

Sequence | relative binding free energy
GAGTGCACGTGCTAGT | 0.02 kcal/mol
GGTGGCACGTGTAGCA | 0.06 kcal/mol
CGGGGCACGTGTGTAA | -0.11 kcal/mol
TAGTGCACGTGTGTGA | -0.02 kcal/mol
AGAATCACGTGAGTTT | 0.47 kcal/mol
CTATTCACGTGGTGCG | 0.12 kcal/mol
TGGCGCACGTGGAGGC | -0.22 kcal/mol
GTGGGCACGTGAGTGT | 0.21 kcal/mol
AAGCGCACGTGGGGTT | -0.34 kcal/mol
ATCCGCACGTGTTGTG | 0.09 kcal/mol
CGTGTCACGTGTTGAT | 0.1 kcal/mol
ACGTTCACGTGTTAGA | 0.34 kcal/mol
GTAATCACGTGGGGCA | -0.07 kcal/mol
GTTCACACGTGTCGGG | 0.08 kcal/mol
GGAGGCACGTGTGAGG | -0.1 kcal/mol
GTGTGCACGTGGCTGT | -0.09 kcal/mol
TCATGCACGTGCGGTT | -0.13 kcal/mol
GACGGCACGTGGTAGT | -0.03 kcal/mol
AAAATCACGTGTGTTG | 0.13 kcal/mol
TAGTGCACGTGTCGGG | 0.01 kcal/mol
GGGTACACGTGGGAAG | 0.03 kcal/mol
GGGTCCACGTGTGCGT | 0.05 kcal/mol
AGCAGCACGTGGAGGG | -0.14 kcal/mol
GGTAACACGTGTAAAT | 0.22 kcal/mol
TCCGGCACGTGTGTGG | -0.09 kcal/mol

Sequence | relative binding free energy
ATGAGCACGTGGAGCG | -0.07 kcal/mol
GTAAGCACGTGGTGAG | -0.12 kcal/mol
GGTAACACGTGGTGGC | -0.02 kcal/mol
GAGTGCACGTGCAGTA | 0.1 kcal/mol
TCTATCACGTGCTGGG | 0.15 kcal/mol
TATGACACGTGGGGTT | -0.1 kcal/mol
GTACACACGTGGTGGA | 0.08 kcal/mol
AAGAACACGTGTGGAT | 0.17 kcal/mol
TGATTCACGTGATGAA | 0.37 kcal/mol
GACGTCACGTGGTGTG | 0.09 kcal/mol
TGGGTCACGTGATTCG | 0.05 kcal/mol
GCAGGCACGTGTGTGC | -0.08 kcal/mol
GGCGGCACGTGGCAGG | -0.08 kcal/mol
TACTGCACGTGAGGTG | 0.32 kcal/mol
CGTGGCACGTGAGGTT | 0.19 kcal/mol
TGTCACACGTGAAGTT | 0.23 kcal/mol
TGCGGCACGTGGATTT | 0 kcal/mol
GATGGCACGTGTGGGA | 0.13 kcal/mol
TTGGGCACGTGCTATG | -0.1 kcal/mol
ATGGACACGTGATATA | 0.21 kcal/mol
AAGTACACGTGAGGAG | 0.19 kcal/mol
